# Some of the results follow.
# B1: GS13455A-bfa-343-25-343 (Bacteroides fragilis) (protein)
# chain: KDEIQIVDQDTSWQMDNKYIEEDIREQLGIDPFTDLVYLGYYGNPYTQLEAINDLVNTTLVGKNELSFKVKVTKPYKEDIKVNLMKEDKLVTDFPEMAEGIPLFPSENCTFEGGVLKAGELETTVKLTLKDVEKLNNLSGYVMAIKLTMEGSHEHLAIARTRSSYFVKLNLSIRLDNIDSSNKKIEGKGFNKEISFKSDIRPDKLGSLNDGNFTANNWYTSNANNYLTIILPEKQSLKGFRLDTNTSPSGSYMLKSCRVMVETPDGNWVNHGVFDRKSMDGIAYISFKKPVECTKVRFENMMAFNGRFSVDVNEVTAFR
# What was measured:
# Experiment in all cases: glycan array binding signal (z-score within array); higher = stronger binding
# Settings in all cases: glycan notation: IUPAC condensed, linker removed
# Fuc(a1-2)Gal = target: Fuc(a1-2)Gal
# Summary of the method: (§1)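 Negative Z-scores can be read as non-binding. The Z-score is calculated within each array and then averaged across arrays of one protein sequence at different concentrations or buffers and across linkers. Arrays, 3228 in all, were curated from the Consortium for Functional Glycomics database and kept only where the protein sequence was available.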
# Fuc(a1-2)Gal(b1-3)GalNAc = target: Fuc(a1-2)Gal(b1-3)GalNAc
# Summary of the method: as §1
# [1] = target: Fuc(a1-2)Gal(b1-3)GalNAc(a1-3)[Fuc(a1-2)]Gal(b1-4)Glc
# Summary of the method: as §1
# [2] = target: Fuc(a1-2)Gal(b1-3)GalNAc(a1-3)[Fuc(a1-2)]Gal(b1-4)GlcNAc
# Summary of the method: as §1
# [3] = target: Fuc(a1-2)Gal(b1-3)GalNAc(b1-3)Gal
# Summary of the method: as §1
# [4] = target: Fuc(a1-2)Gal(b1-3)GalNAc(b1-3)Gal(a1-4)Gal(b1-4)Glc
# Summary of the method: as §1
# [5] = target: Fuc(a1-2)Gal(b1-3)GalNAc(b1-4)[Neu5Ac(a2-3)]Gal(b1-4)Glc
# Summary of the method: as §1
# Fuc(a1-2)Gal(b1-3)GlcNAc = target: Fuc(a1-2)Gal(b1-3)GlcNAc
# Summary of the method: as §1
# [6] = target: Fuc(a1-2)Gal(b1-3)GlcNAc(b1-2)Man(a1-3)[Fuc(a1-2)Gal(b1-3)GlcNAc(b1-2)Man(a1-6)]Man(b1-4)GlcNAc(b1-4)GlcNAc
# Summary of the method: as §1
# [7] = target: Fuc(a1-2)Gal(b1-3)GlcNAc(b1-2)Man(a1-3)[Fuc(a1-2)Gal(b1-3)GlcNAc(b1-2)Man(a1-6)]Man(b1-4)GlcNAc(b1-4)[Fuc(a1-6)]GlcNAc
# Summary of the method: as §1
# [8] = target: Fuc(a1-2)Gal(b1-3)GlcNAc(b1-3)Gal(b1-4)Glc
# Summary of the method: as §1
# [9] = target: Fuc(a1-2)Gal(b1-3)GlcNAc(b1-3)GalNAc
# Summary of the method: as §1
# [10] = target: Fuc(a1-2)Gal(b1-3)GlcNAc(b1-3)[Fuc(a1-2)Gal(b1-3)GlcNAc(b1-6)]GalNAc
# Summary of the method: as §1
# [11] = target: Fuc(a1-2)Gal(b1-3)GlcNAc(b1-3)[Gal(b1-4)GlcNAc(b1-6)]Gal(b1-4)Glc
# Summary of the method: as §1
# [12] = target: Fuc(a1-2)Gal(b1-3)GlcNAc(b1-3)[Neu5Ac(a2-6)Gal(b1-4)GlcNAc(b1-6)]Gal(b1-4)Glc
# Summary of the method: as §1
# [13] = target: Fuc(a1-2)Gal(b1-3)GlcNAc6S
# Summary of the method: as §1
# [14] = target: Fuc(a1-2)Gal(b1-3)[Fuc(a1-4)]GlcNAc
# Summary of the method: as §1
# [15] = target: Fuc(a1-2)Gal(b1-3)[Fuc(a1-4)]GlcNAc(b1-2)Man(a1-3)[Fuc(a1-2)Gal(b1-3)[Fuc(a1-4)]GlcNAc(b1-2)Man(a1-3)]Man(b1-4)GlcNAc(b1-4)GlcNAc
# Summary of the method: as §1
# [16] = target: Fuc(a1-2)Gal(b1-3)[Fuc(a1-4)]GlcNAc(b1-2)Man(a1-3)[Fuc(a1-2)Gal(b1-3)[Fuc(a1-4)]GlcNAc(b1-2)Man(a1-6)]Man(b1-4)GlcNAc(b1-4)[Fuc(a1-6)]GlcNAc(b1-4)[Fuc(a1-6)]GlcNAc
# Summary of the method: as §1
# [17] = target: Fuc(a1-2)Gal(b1-3)[Fuc(a1-4)]GlcNAc(b1-3)[Fuc(a1-3)[Gal(b1-4)]GlcNAc(b1-6)]Gal(b1-4)Glc
# Summary of the method: as §1
# [18] = target: Fuc(a1-2)Gal(b1-3)[Fuc(a1-4)]GlcNAc(b1-3)[Gal(b1-4)GlcNAc(b1-6)]Gal(b1-4)Glc
# Summary of the method: as §1
# Fuc(a1-2)Gal(b1-4)Glc = target: Fuc(a1-2)Gal(b1-4)Glc
# Summary of the method: as §1
# Fuc(a1-2)Gal(b1-4)Glc6S = target: Fuc(a1-2)Gal(b1-4)Glc6S
# Summary of the method: as §1
# Fuc(a1-2)Gal(b1-4)GlcNAc = target: Fuc(a1-2)Gal(b1-4)GlcNAc
# Summary of the method: as §1
# [19] = target: Fuc(a1-2)Gal(b1-4)GlcNAc(b1-2)Man
# Summary of the method: as §1
# [20] = target: Fuc(a1-2)Gal(b1-4)GlcNAc(b1-2)Man(a1-3)[Fuc(a1-2)Gal(b1-4)GlcNAc(b1-2)Man(a1-6)]Man(b1-4)GlcNAc(b1-4)GlcNAc
# Summary of the method: as §1
# [21] = target: Fuc(a1-2)Gal(b1-4)GlcNAc(b1-2)Man(a1-3)[Fuc(a1-2)Gal(b1-4)GlcNAc(b1-2)Man(a1-6)]Man(b1-4)GlcNAc(b1-4)[Fuc(a1-6)]GlcNAc
# Summary of the method: as §1
# [22] = target: Fuc(a1-2)Gal(b1-4)GlcNAc(b1-2)[Fuc(a1-2)Gal(b1-4)GlcNAc(b1-4)]Man(a1-3)[Fuc(a1-2)Gal(b1-4)GlcNAc(b1-2)Man(a1-6)]Man(b1-4)GlcNAc(b1-4)GlcNAc
# Summary of the method: as §1
# [23] = target: Fuc(a1-2)Gal(b1-4)GlcNAc(b1-3)Gal(b1-4)GlcNAc
# Summary of the method: as §1
# [24] = target: Fuc(a1-2)Gal(b1-4)GlcNAc(b1-3)Gal(b1-4)GlcNAc(b1-2)Man(a1-3)[Fuc(a1-2)Gal(b1-4)GlcNAc(b1-3)Gal(b1-4)GlcNAc(b1-2)Man(a1-6)]Man(b1-4)GlcNAc(b1-4)GlcNAc
# Summary of the method: as §1
binder,measurement,setting,value
B1,glycan array binding signal (z-score),Fuc(a1-2)Gal,-0.592
same,glycan array binding signal (z-score),Fuc(a1-2)Gal(b1-3)GalNAc,0.368
same,glycan array binding signal (z-score),[1],-0.347
same,glycan array binding signal (z-score),[2],0.115
same,glycan array binding signal (z-score),[3],-0.261
same,glycan array binding signal (z-score),[4],-0.354
same,glycan array binding signal (z-score),[5],-0.834
same,glycan array binding signal (z-score),Fuc(a1-2)Gal(b1-3)GlcNAc,0.593
same,glycan array binding signal (z-score),[6],-0.69
same,glycan array binding signal (z-score),[7],-0.058
same,glycan array binding signal (z-score),[8],-0.067
same,glycan array binding signal (z-score),[9],-0.048
same,glycan array binding signal (z-score),[10],-0.314
same,glycan array binding signal (z-score),[11],-0.195
same,glycan array binding signal (z-score),[12],0.11
same,glycan array binding signal (z-score),[13],0.206
same,glycan array binding signal (z-score),[14],-0.477
same,glycan array binding signal (z-score),[15],0.956
same,glycan array binding signal (z-score),[16],-0.263
same,glycan array binding signal (z-score),[17],0.296
same,glycan array binding signal (z-score),[18],-0.352
same,glycan array binding signal (z-score),Fuc(a1-2)Gal(b1-4)Glc,-0.243
same,glycan array binding signal (z-score),Fuc(a1-2)Gal(b1-4)Glc6S,-0.139
same,glycan array binding signal (z-score),Fuc(a1-2)Gal(b1-4)GlcNAc,0.741
same,glycan array binding signal (z-score),[19],-0.282
same,glycan array binding signal (z-score),[20],-0.023
same,glycan array binding signal (z-score),[21],-0.87
same,glycan array binding signal (z-score),[22],-0.029
same,glycan array binding signal (z-score),[23],-0.734
same,glycan array binding signal (z-score),[24],0.565

# Reference: the supplement of paper PMC8728848
